# Source: PubChem BioAssay AID651820 (National Center for Advancing Translational Sciences (NCATS), 2012)
# Several values for one entry are separate records, joined by “and”; a condition that tells them apart may be missing. Equal values may be shown once. The whole screen tested about 340,000 compounds, of which about 12,000 (3.5%) were called active. The shares of active, inactive and inconclusive entries below differ from those in the screen. Calls come from the whole dose curve; as a rule, active = well fitted inhibition curve with a large enough effect; inconclusive = small, poorly fitted or top-dose-only effect, or another doubt; inactive = no such curve, though single readings can be large or run the other way. Potencies of inconclusive entries are doubtful fits and often do not repeat.
# Assay: qHTS Assay for Inhibitors of Hepatitis C Virus (HCV)
# Conditions: Huh7.5.1 HCVcc-Cre (HCVcc is cell-culture hepatitis C virus) infection, luciferase reporter, 44 h; series mostly up to 41.8 µM
# Procedure, shortened: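 Antiviral activity was scored by luciferase reporter output from cells infected with HCVcc-Cre (~0.5 moi) in presence of compound, 44 h infection period, cells seeded 1,000/well 4 h prior.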
# Potency is the fitted concentration of half-maximal effect; tags give direction and shape of the fitted curve.
row,Compound,Potency
1,COc1cccc(C(=O)/C=C/Nc2ccc(S(=O)(=O)Nc3cccc(C(C)=O)c3)cc2)c1,"inconclusive: 31.6 µM [inhibitor, single point]"
2,S=c1[nH]nc(COc2ccccc2)n1/N=C/c1c(Cl)cccc1Cl,inactive
3,CCOC(=O)c1[nH]c(C)c(C(=O)NC2CCCCCC2)c1C,inactive
4,COC(=O)CNC(=O)CNC(=O)c1nn(-c2ccc(OC)c(OC)c2)c(=O)c2ccccc12,inactive
5,Cc1cccc(C(CC(=O)NCCc2ccccc2)c2ccccc2)c1O (stereo not drawn),"inconclusive: 11.2 µM [inhibitor, partial curve]"
6,CC(C)(C)C(=O)Nc1cc(S(=O)(=O)N2CCCCC2)ccc1N1CCCCC1,"inconclusive: 11.2 µM [inhibitor, partial curve]"
7,CCOc1ccc(NS(=O)(=O)c2ccc(NS(=O)(=O)c3ccc(SC)cc3)cc2)cc1,"inconclusive: 31.6 µM [inhibitor, single point]"
8,Cc1ccc(NC(=O)C2CCCN2C(=O)OCc2ccccc2)cc1F (stereo not drawn),"inconclusive: 31.6 µM [inhibitor, single point]"
9,Cc1ccc(-c2ccc(=O)n(CC(=O)N3CCN(c4cc(Cl)ccc4C)CC3)n2)cc1,"inconclusive: 22.4 µM [inhibitor, single point]"
10,Cc1nn2c(N3CCN(c4ccccn4)CC3)cc(C(C)C)nc2c1-c1ccccc1,"inconclusive: 31.6 µM [inhibitor, single point] and inconclusive: 1 µM [inhibitor, full curve]"
11,O=C(Nc1ccc2nc(-c3ccccc3)[nH]c2c1)c1ccco1,"inconclusive: 4.47 µM [inhibitor, full curve, poor fit]"
12,CC1CCN(C(=O)Cn2c3ccccc3c3nc4n(c(=O)c32)CCCS4)CC1,inactive
13,COc1cccc(CN2CCC(C(=O)N3CCN(Cc4ccc5c(c4)OCO5)CC3)CC2)c1OC,"inconclusive: 5.01 µM [inhibitor, partial curve]"
14,O=C(OCc1ccccc1)N1CCC2CC1c1cc(-c3ccc4c(c3)OCO4)ccc12 (stereo not drawn),"inconclusive: 22.4 µM [inhibitor, single point]"
15,CN1CCC(=NNc2ccc(S(=O)(=O)N3CCOCC3)cc2[N+](=O)[O-])CC1,inactive
16,O=C1CCCN1CCCNc1nc2c(S(=O)(=O)c3ccccc3)nnn2c2ccc(Cl)cc12,"inconclusive: 3.98 µM [inhibitor, partial curve]"
17,Cc1c(CCOC(=O)C2C3CC4CC(C3)CC2C4)sc[n+]1CC(=O)c1ccc(Br)cc1 (stereo not drawn),"inconclusive: 31.6 µM [inhibitor, single point]"
18,Cc1ccc(Cl)cc1NC(=O)c1ccc(Cn2cc(Cl)cn2)cc1,"inconclusive: 10 µM [inhibitor, partial curve]"
19,CCCOc1ccc(CSc2ncn[nH]2)cc1,"inconclusive: 35.5 µM [inhibitor, single point]"
20,CCOC(=O)C1=C(C)N(CCC(=O)O)C(=O)NC1c1ccccc1Cl (stereo not drawn),inactive
21,COc1ccc(CCC(=O)N2c3ccccc3CC2C)cc1 (stereo not drawn),"inconclusive: 11.2 µM [inhibitor, partial curve]"
22,COc1ccc(COC(=O)C2=C(C)NC(=O)NC2c2ccc(OC)c(OC)c2)cc1 (stereo not drawn),inactive
23,CC(C)C[C@H]1C(=O)N2CCC[C@H]2[C@]2(O)O[C@](NC(=O)[C@@H]3C=C4c5cccc6[nH]cc(c56)C[C@H]4N(C)C3)(C(C)C)C(=O)N12,"inconclusive: 11.2 µM [inhibitor, single point]"

row,Compound,Potency
1,O=C1Nc2ccccc2N=C(c2ccccc2)c2ccccc21,inactive
2,CN(Cc1ccccc1)c1oc(COc2ccccc2F)nc1C#N,inactive
3,O=[N+]([O-])c1nn(-c2cccc(Cl)c2)n(O)c1=NCc1cccnc1,"inconclusive: 8.91 µM [inhibitor, partial curve]"
4,CCC(=O)N1CCc2cc(S(=O)(=O)NCCC(=O)Nc3ccc(OC)cc3)ccc21,inactive
5,COc1ccc(-n2c(/C=C3\C(=O)Nc4ccccc43)nc3ccccc3c2=O)cc1,inactive
6,O=C(Cn1nc2ccccc2n1)N/N=C/c1cc([N+](=O)[O-])ccc1O,"inconclusive: 22.4 µM [inhibitor, single point]"
7,NC(=O)c1ccsc1NC(=O)CSc1nnc(Nc2ccccc2)s1,"inconclusive: 31.6 µM [inhibitor, single point]"
8,COC(=O)c1c(-c2ccc3ccccc3c2)csc1NC(=O)Cc1ccc(OC)c(OC)c1,"inconclusive: 31.6 µM [inhibitor, single point]"
9,CC(C)n1c(NCc2c[nH]c3ccccc23)nc2ccccc21,"inconclusive: 31.6 µM [inhibitor, single point]"
10,Cc1onc(-c2ccccc2)c1C(=O)N1CCN(S(=O)(=O)c2ccc3c(c2)OCCO3)CC1,"inconclusive: 3.55 µM [inhibitor, single point]"
11,CCN(CC)S(=O)(=O)c1cc(NC(=O)Cc2ccsc2)ccc1C,active: 12.6 µM
12,CC1(C)C/C(=N/Nc2ccc([N+](=O)[O-])cc2[N+](=O)[O-])C(C)(C)O1,inactive
13,COc1ccc(S(=O)(=O)NCc2nc3nc(C)cc(C)n3n2)cc1OC,inactive
14,CCN(CC)CCOC(=O)c1ccc(NC(=O)CCCN2C(=O)/C(=C\c3cccs3)SC2=S)cc1,active: 10 µM
15,C[C@@]12C(=O)Nc3cc(Cl)ccc3C(=O)N1[C@H]1c3ccccc3OC[C@@H]1[C@@H]2c1ccccc1,"inconclusive: 11.2 µM [inhibitor, partial curve]"
16,CC1CN(C(=O)c2cc([N+](=O)[O-])cc([N+](=O)[O-])c2)CC(C)O1 (stereo not drawn),inactive
17,O=C(CCN1C(=O)/C(=C/c2ccc3c(c2)OCO3)SC1=S)NNC(=O)c1cccnc1,"inconclusive: 11.2 µM [inhibitor, partial curve]"
18,O=C(c1ccc(Cl)c(S(=O)(=O)N2CCCCC2)c1)N1CCCCCC1,inactive
19,Cc1ccc(NC(=O)c2ccc(C)c(NC3=NC4CS(=O)(=O)CC4S3)c2)cc1C (stereo not drawn),inactive
20,COC(=O)C1=C(C)N(Cc2ccccc2)C(=NCc2cccc(Cl)c2)N[C@H]1c1cccc(F)c1,"inconclusive: 22.4 µM [inhibitor, single point]"
21,CC(C(=O)C12CC3CC(CC(C3)C1)C2)N1CCOCC1 (stereo not drawn),inactive
22,O=c1oc2ccccc2cc1-c1nc2ccccc2o1,inactive
23,CC1(c2ccc3ccccc3c2)NC(=O)N(CC(=O)N2CCN(S(=O)(=O)c3ccccc3F)CC2)C1=O (stereo not drawn),"inconclusive: 31.6 µM [inhibitor, single point]"

row,Compound,Potency
1,O=C(c1cccc(C(F)(F)F)c1)N(c1ccccn1)C1CCCCC1,inactive
2,COc1ccc(CN2CCC(=O)N([C@H](CO)CC(C)C)CC2)cc1OC,inactive
3,Cc1ccc(-c2nc(CC(=O)Nc3cccc(S(=O)(=O)NC4=NCCC4)c3)cs2)cc1,"inconclusive: 11.2 µM [inhibitor, single point]"
4,CSCCC(NC(=O)c1ccccc1Cl)C(=O)N1CCCCCCC1 (stereo not drawn),inactive
5,CC(C)CNc1nc(N)c([N+](=O)[O-])c(N2CCCCCC2)n1,"inconclusive: 25.1 µM [inhibitor, single point]"
6,COC(=O)c1[nH]c2ccccc2c1NC(=O)CN1CCN(c2cccc(OC)c2)C(C)C1 (stereo not drawn),"inconclusive: 11.2 µM [inhibitor, single point]"
7,Cc1c(CC(=O)NCCCCCC(=O)O)c(=O)oc2cc3c(cc12)CCC(C)(C)O3,inactive
8,O=C(NCCC1=CCCCC1)C1CCN(S(=O)(=O)c2ccc(-n3cnnn3)cc2)CC1,"inconclusive: 5.62 µM [inhibitor, single point]"
9,S=C(Nc1ccc(Cl)cc1Cl)N1CCCC1,inactive
10,COc1ccc(-c2nc(CCNC(=O)c3ccc(Br)o3)cs2)cc1,active: 10 µM
11,c1cncc(-c2nc(N3CCOCC3)c3ccccc3n2)c1,"inconclusive: 35.5 µM [inhibitor, partial curve, poor fit]"
12,CC1=C(C(=O)NC2CCCc3c2cnn3-c2ccc(F)cc2F)OCCO1 (stereo not drawn),"inconclusive: 12.6 µM [inhibitor, single point]"
13,c1ccc2[nH]c(CSc3nc4ccccc4s3)nc2c1,"inconclusive: 31.6 µM [inhibitor, single point]"
14,C#CCOCCOCCOCCNc1nc(N2CCN(C(=O)[C@H](CCC(=O)O)n3cc(CN)nn3)CC2)nc(N2CCN(C(=O)[C@H](CCCN=C(N)N)n3cc(C(N)[C@@H](C)CC)nn3)CC2)n1 (stereo partly drawn),"inconclusive: 31.6 µM [inhibitor, single point]"
15,COc1ccc(NC(=O)c2ccc3[nH]c(C)c(C)c3c2)c(OC)c1,"inconclusive: 11.2 µM [inhibitor, partial curve]"
16,O=C(NCCC1CCCCN1S(=O)(=O)c1cccs1)C(=O)Nc1ccccc1F (stereo not drawn),active: 8.91 µM
17,COc1ccc2cc(C3CC(c4ccco4)=NN3S(=O)(=O)c3ccccc3)c(Cl)nc2c1 (stereo not drawn),"inconclusive: 20 µM [inhibitor, single point]"
18,CCCc1nnc(SCC(=O)NC2CCCC2)n1CCOC,inactive
19,Oc1cccc(CCc2ccccn2)c1,"inconclusive: 2 µM [inhibitor, partial curve]"
20,COC(=O)c1cnn(-c2cc(Oc3cccc(C)c3)ncn2)c1N,"inconclusive: 8.91 µM [inhibitor, partial curve]"
21,O=C(Nc1ccc(NC(=O)c2cc([N+](=O)[O-])ccc2N2CCOCC2)cc1)c1cccs1,"inconclusive: 5.01 µM [inhibitor, full curve]"
22,O=C(CCCN1C(=O)/C(=C/c2ccccc2)SC1=S)N1CCOCC1,inactive
